# The supplement of paper PMC11417369
# Some of the results follow.
# Test system: PfHDP1 homeodomain (GST-tagged)
# Assay: gcPBM binding intensity (ln(normalized median fluorescence intensity)); higher = stronger DNA binding
# Outline: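 Binding intensity is the highest Masliner-normalised natural-log median intensity over replicate spots in either probe orientation. To obtain it, GST-tagged P. falciparum DNA-binding domains made in E. coli were incubated for 1 h on an Agilent 4 × 180k array of primer-extended double-stranded 36-bp intergenic genomic probes plus negative controls. Detection used Alexa488 anti-GST antibody with scanning at 488 nm.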
row,Sequence,gcPBM binding intensity (ln)
1,TATATAATACGAATTTGTACATATTAAATAAATTAT [XGTACX_site93],6.43
2,ATAAAATATAGGTATGCACACACATATACTTCTGTG [CACACA_site8398],8.84
3,GATATATGTATAATAACGCACACTACAAAAATAAAA [CACACA_site2100],7.35
4,AATAAAGAAGAAGAAAGTACACATTTCACAAAGGGG [XGTACX_site1308],6.98
5,AAGGTATGATTAATCACACACATAAATATAAATACA [CACACA_site5464],6.69
6,AAGCTTCATTAATATACACACATATATGTGTATATT [CACACA_site7693],6.88
7,TAATATATTATAAACACATGCACATTAATAATAACT [TGCATGCA_site708],8.38
8,ATAGACATTTTACTTTGTACATATAAACATATATAT [XGTACX_site2733],6.75
9,TATATATATATATATGTGCACATTTTATTAAAATGT,10.2
10,ACATAAATATATTTTTCACACATCATTAGTTATGAA [CACACA_site4724],6.68
11,ATATGAAACATGAAGGTGCATAATGTGTATATTTAT,10.1
12,TATTTTTTAAAAAAACGTACAAACATAATAAAAATA [XGTACX_site1857],7.11
13,TTTTTTATGAGGTGGTGTACTTTTTTTTTTTTCTTT [XGTACX_site8550],6.18
14,TGGTAATACCCATACACACACACATACCCATATATA [CACACA_site5509],6.9
15,TTCAAATAAATAGTAGTGCATATTTATTAATGTAAA,8.68
16,ATTAAAGAGAGACATCAACACACATACGTATGTATA [CACACA_site8393],6.43
17,CAAGAAACAGTGATACGTACACATATATATATATAT [XGTACX_site3229],9.24
18,AATGAATGTACATACGCATGTACTTGACTAAATTAT [TGCATGCA_site436],6.4
19,ATTTTCAAATTATCAGATGAATCTTTTTAAGATCTT [XGTACX_negctrl_site598],5.71
20,AAACTATACCAAAACACACATACAAAATATAAAAAA [CACACA_site2707],6.84
21,TTTTTTTTTTTTTTTTTACACACTGCATACAAGAAA [CACACA_site3026],6.53
22,GTCTGCATATGGATACGTACACATATATATTAATGT [XGTACX_site2260],6.84
23,GGGAAAAAATGAGGTCGTACATTTTTCATCACAAAT [XGTACX_site8920],6.42
24,CTCATATATAACACATGTACACAGATTTTGCAAATG [XGTACX_site6879],8.94
25,CAACAACATTTTTCATGTACATATATTTTATAATAT [XGTACX_site519],6.47
